Measured values from patent US20220023420A1 (PRECIGEN, published 2022).

Tests used:
[1] = molecular target: TGF-β1 (UniProt P01137 partial chain); experiment: cell-based or functional assay
[2] = molecular target: T1, Anti-PD-1 (VH6-VL5) IgG4-ADA2 (UniProt Q9NZK5 30-511); experiment: SPR (Biacore 3000), recombinant PD-1 Fc immobilized on CM5, fusion protein injected
T1 construct: not shown: IgG4 constant region
Experimental: (§1) Surface plasma resonance (SPR) analysis was performed using Biacore3000, CM5 chip, an amine-coupling kit, 10×HBS-P running buffer and Glycine for. […] Dissociation was allowed to proceed followed by regeneration of the chip surface.

[3] = molecular target: T2, Anti-PD-1 (VH7-VL6) IgG1-ADA2 (UniProt Q9NZK5 30-511); experiment: as above
T2 construct: IgG1 format; not shown: IgG1 constant region
Experimental: as §1

[4] = molecular target: T3, Anti-PD-1 (VH6-VL5) IgG1-ADA2 (UniProt Q9NZK5 30-511); experiment: as above
T3 construct: IgG1 format; also called anti-PD-1 (VH6/VL5) hIgG1-ADA2; not shown: IgG1 constant region
Experimental: as §1

[5] = molecular target: Anti-PD-1 (VH6-VL5) scFv-ADA2 (Homo sapiens (Human), UniProt Q9NZK5 30-511); experiment: as above
Experimental: as §1

Chain of TGF-β1 (P01137 279-390 limits assumed): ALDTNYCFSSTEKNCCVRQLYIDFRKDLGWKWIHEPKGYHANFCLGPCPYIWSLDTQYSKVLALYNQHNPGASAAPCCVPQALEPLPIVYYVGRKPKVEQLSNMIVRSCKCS

IC50-inhibition of TGF-β1 induced reporter gene activity (HEK-Blue TGF-β cells, SEAP) [1]: 9.3 pM
B1: Anti-PD-1 (VL6-VH7).IgG4(S108P). TGFbRII (other)
heavy: QVQLVQSGVEVKKPGASVKVSCKASGYTFTNYYMYWVRQAPGQGLEWMGGINPSNGGTNFNEKFKNRVTLTTDSSTTTAYMELKSLQFDDTAVYYCARRDYRFDMGFDYWGQGTTVTVSSASTKGPSVFPLAPCSRSTSESTAALGCLVKDYFPEPVTVSWNSGALTSGVHTFPAVLQSSGLYSLSSVVTVPSSSLGTKTYTCNVDHKPSNTKVDKRV[human IgG4 Fc with S228P L445P (EU numbers) not printed]GGGGSGGGGSIPPHVQKSVNNDMIVTDNNGAVKFPQLCKFCDVRFSTCDNQKSCMSNCSITSICEKPQEVCVAVWRKNDENITLETVCHDPKLPYHDFILEDAASPKCIMKEKKKPGETFFMCSCSSDECNDNIIFSEEYNTSNPD
light: EIVLTQSPATLSLSPGERATLSCRASKGVSTSGYSYLHWYQQKPGQAPRLLIYLASYLESGVPARFSGSGSGTDFTLTISSLEPEDFAVYYCQHSRDLPLTFGGGTKVEIKRTVAAPSVFIFPPSDEQLKSGTASVVCLLNNFYPREAKVQWKVDNALQSGNSQESVTEQDSKDSTYSLSSTLTLSKADYEKHKVYACEVTHQGLSSPVTKSFNRGEC

Kd [2]: 0.0616 pM | Kd [3]: 0.509 pM | Kd [4]: 0.309 pM | Kd [5]: 3460 pM
B2: PD-1 Fc fusion protein (Fc fusion)
chain: not shown
notes: also called PD-1-Fc antigen; PD-1 fused to human Fc region; not shown: human Fc region

One block for each binder: values may come before it.
